# Data published in the supplement of paper PMC3334620.
# The full ranking holds about 33,000 sequences; the median of “E-score (-0.5 to 0.5)” is about -0.017, and the highest 2% start at about 0.3. Some of the results follow.
# Target: T1, Sut1 (UniProt P53032)
# T1 sequence: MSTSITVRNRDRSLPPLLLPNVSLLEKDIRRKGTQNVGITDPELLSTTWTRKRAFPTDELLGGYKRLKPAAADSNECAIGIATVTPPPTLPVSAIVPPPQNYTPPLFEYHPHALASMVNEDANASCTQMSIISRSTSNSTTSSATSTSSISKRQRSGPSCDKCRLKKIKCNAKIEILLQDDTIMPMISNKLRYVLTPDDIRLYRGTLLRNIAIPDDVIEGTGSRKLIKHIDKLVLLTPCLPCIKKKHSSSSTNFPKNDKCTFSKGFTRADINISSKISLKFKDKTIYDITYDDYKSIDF
# Test: PBM E-score (8-mer binding enrichment) (E-score (-0.5 to 0.5)); higher = stronger / more preferred TF binding; most listed sequences are background and not binding sites
# Settings: protein concentration: 200 nM; construct: GST-full length
# Method in brief: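 Each ungapped eight-base word and its reverse complement, pooled, received an E-score from the Universal PBM Analysis Suite. Underlying scans, normalised with masliner, recorded fluorescent anti-GST bound to GST-tagged yeast transcription factors. These were applied at about 100-200 nM to universal all-10-mer Agilent arrays double-stranded by primer extension.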
row,Sequence,PBM E-score
1,CTTAGCGA,-0.128
2,GCGTTGCC,-0.119
3,AAGAAGCT,0.102
4,ATGCTTAG,-0.0198
5,AACAAGCG,-0.0413
6,CCTTACAC,0.0691
7,TACACAGA,0.105
8,TACCGAAA,0.102
9,ATTGTTCC,0.0563
10,AGTCGGCA,0.05
11,GCGCAGCC,0.0307
12,AGGCGGAG,0.234
13,AGAGCTGA,-0.141
14,AGAGATTG,0.129
15,AAGCTCGG,0.235
16,ACCGCTTA,-0.175
17,CAATATTA,0.296
18,CTCCTAAA,0.0137
19,TAGGAAAA,0.0863
20,CGAATGTA,0.024
21,AATCGCTG,-0.0129
22,ATGTAATC,0.12
23,AATCCCCC,-0.212
24,GCGGCAAA,-0.104
25,CTGCAAAC,-0.209

row,Sequence,PBM E-score
1,CGCCATTA,0.0246
2,CAGCAAGA,0.00586
3,GACTTGAC,0.125
4,CCCTGTCC,-0.278
5,AATGAAGC,-0.0403
6,CCGTCTTA,0.0383
7,GTTAATGA,0.111
8,CACGCAGG,-0.0775
9,AAGACATC,-0.113
10,CGACAGCC,-0.145
11,CCGGCCGA,0.0979
12,CAGCCCCG,0.161
13,CCATAGCC,0.00618
14,TAGCGTCA,-0.116
15,ATCGGCAT,0.0323
16,CACTCTTC,-0.135
17,CAGTTGCA,-0.0927
18,GTAGCAAA,0.138
19,CATGTTAC,0.051
20,ACCCTCAC,-0.305
21,AAACCAGG,-0.139
22,ATAGCTGA,-0.00086
23,GATTTCCA,-0.0172
24,AAGCTAGA,-0.0114
25,CGCACCTC,-0.128

row,Sequence,PBM E-score
1,GGAAGATA,0.104
2,GCGATGAC,-0.218
3,GAGTGGAC,-0.177
4,CCGTGATA,-0.0504
5,AAAATGTG,-0.014
6,CACCCCAG,-0.216
7,AGGTTGGG,-0.218
8,AATCCACA,0.14
9,CCGTCAAC,0.0722
10,AGTATGAC,0.113
11,AATATCCA,0.171
12,TCACCCCA,-0.0213
13,GTCGTGTA,0.0309
14,AACCCACG,-0.0793
15,ATATAGAT,0.272
16,AAGGCACG,0.0592
17,AAGTAAGA,-0.0209
18,GCGCTACA,-0.0141
19,AAATTCCC,-0.245
20,AATGGCGT,-0.147
21,AAATGTCC,0.142
22,GGGGGATA,-0.276
23,CATAAATG,-0.0283
24,AACTTACA,0.096
25,GCTAACGA,0.118

row,Sequence,PBM E-score
1,ACACCCAT,-0.0858
2,CATCTTTC,0.0273
3,GACAGGAC,-0.00501
4,ACTCATCG,0.0167
5,GGCCAGGA,-0.175
6,CGTGTCCC,-0.21
7,AGGTAGTC,-0.125
8,GGCCTAGA,-0.15
9,AGCCAGAC,0.00765
10,ACTCTGAC,-0.103
11,GTAGCCTA,-0.141
12,CGACATTA,0.188
13,CGTAAAAC,-0.0625
14,GCATTGAA,0.0569
15,GTAGCGAC,-0.175
16,GTGAAACA,0.0674
17,CCCCCAGG,-0.402
18,GGTCCATA,-0.0456
19,ATCCTGGA,-0.116
20,ATGATTTC,0.299
21,AAGTGTGG,0.0182
22,CATCGACA,-0.0954
23,ATCACACA,0.146
24,ACCCCGAG,0.382
25,CGGGAACG,-0.0927

row,Sequence,PBM E-score
1,GGAGCGGA,0.118
2,AGGCCTGC,-0.208
3,AGTCCTCG,0.0172
4,ACACACTC,0.117
5,AACGCCTA,-0.0935
6,CATGAATA,0.0806
7,GACGCATA,-0.0138
8,ACCATTGG,-0.0785
9,ACTCCCTC,-0.241
10,ACTGACGG,-0.126
11,ATGCTCGC,-0.228
12,AGCCTGAA,-0.0142
13,CTAACTAA,0.142
14,AACTTGGC,-0.0992
15,CCAGAGCG,-0.147
16,ACGTCTAC,0.00638
17,AAATCCCC,-0.119
18,CAGGCAAA,0.157
19,ATCGGAAC,0.14
20,ACCCCACG,-0.235
21,CCTGGACC,-0.167
22,GCGCTAAC,-0.0641
23,GTGGGCAA,-0.133
24,AAGTCGCC,-0.0949
25,AGACCGCT,-0.141

row,Sequence,PBM E-score
1,CCACCTAA,-0.119
2,CATAACAA,0.179
3,ACGGGTGG,-0.255
4,CTCAGAAG,-0.217
5,ATGCTAAC,0.0416
6,ACTCCGAC,0.489
7,AAAATGTC,0.183
8,CGCGCACA,-0.17
9,AGCTCTGG,-0.268
10,AAAATTGC,0.0649
11,CAACTTGC,-0.173
12,GTGGGAGA,-0.272
13,CGACCGAG,-0.0823
14,ATGGTTCC,0.0908
15,CAATGGTG,-0.274
16,CATCGAGA,-0.0242
17,CCGTCGGC,-0.245
18,GTTTCAGA,-0.195
19,GACGTACA,0.0362
20,AGAGAGTC,-0.161
21,AGCGAGCC,-0.238
22,ACCCAAGA,-0.0358
23,CTGCGGCA,-0.15
24,CGTTACCC,-0.203
25,CCAGTCAC,-0.124

row,Sequence,PBM E-score
1,AACCGCCA,-0.19
2,ATAGTAAA,0.181
3,TGATCAAA,-0.0045
4,CAACCCGG,-0.157
5,GAAATAGC,0.0751
6,GGTGGTAC,-0.0938
7,AACCAACG,-0.0959
8,TATTTCGA,0.211
9,AGACACCG,0.0946
10,TCATCAGA,0.00113
11,ACCCATGC,-0.0891
12,CTCGATCC,-0.00149
13,CTTTAAGC,0.0953
14,ACGGGGCC,-0.135
15,CTCTACCC,-0.225
16,GGGAACAC,-0.0832
17,AAGATCTC,-0.00519
18,AATACTAG,0.0557
19,CGACCAAC,0.0389
20,CCTCCCTA,-0.367
21,CTCAGCTC,-0.178
22,GATGGAGA,0.0416
